# According to the supplement of paper PMC4723716:
# Where “and” joins values, the source holds several entries; their conditions need not be identical. Equal entries are not always repeated. ± gives the uncertainty stated by the source. In all, about 9,900 compounds were measured (“viability index relative to DMSO control”: median about 1, lowest 2% from about 0.85 on). This is one part of the list.
# Tested on: Plasmodium falciparum NF54 stage V gametocytes
# Experiment: viability index relative to DMSO control (fraction); higher = less gametocyte killing
# Conditions: 2.5 µM, library set: Broad Institute DOS, incubation time: 72 h
# Experimental: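 Broad DOS informer set and blood-stage-active DOS compounds screened in duplicate at 2.5 µM against P. falciparum NF54 stage V gametocytes with the serum-free one-step SaLSSA (1536-well): 72 h at 37 °C under low oxygen, then saponin lysis and MitoTracker Red CMXRos staining, with high-content imaging. Viability index = viable-object count divided by the plate mean of DMSO wells (0 = killed, about 1 = inactive).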
row,Compound,viability index
1,O=S(=O)(c1ccccc1F)N1[C@@H]2CNC[C@H]1[C@@H]2c1ccc(/C=C/c2ccccc2)cc1,1.02 ± 0.099
2,Cc1noc(C)c1S(=O)(=O)Nc1ccc2c(c1)C(=O)N([C@H](C)CO)C[C@H](C)[C@@H](CN(C)C(=O)Nc1cccc3ccccc13)OCCCC[C@H](C)O2,0.9 ± 0.043
3,COc1ccccc1C#Cc1ccc2c(c1)[C@H]1NCC[C@H]1[C@@H](CO)N2,1.07 ± 0.016
4,O=C(Nc1ccccc1)N1C[C@@H]2N[C@H](C1)[C@@H]2c1ccc(-c2ccccc2F)cc1,1.03 ± 0.08
5,COc1ccc(S(=O)(=O)Nc2ccc3c(c2)OC[C@H](C)NC[C@H](C)[C@@H](OC)CN(C)C3=O)cc1,1.05 ± 0.098
6,CC(C)[C@H]1C(=O)N[C@@H](c2cccc(Cl)c2)C/C=C/C[C@H](C)Oc2ccccc2C(=O)N1C.CC(C)[C@H]1C(=O)N[C@@H](c2cccc(Cl)c2)C/C=C\C[C@H](C)Oc2ccccc2C(=O)N1C,0.988 ± 0.047
7,CCC(=O)N1C[C@@H](O)COC[C@@H]2O[C@@H](CC(=O)NC)CC[C@H]21,0.941 ± 0.064
8,CC(C)NC(=O)N(C)C[C@@H]1Oc2ccc(NC(=O)Cc3ccccc3)cc2CC(=O)N([C@@H](C)CO)C[C@H]1C,0.949 ± 0.16
9,COc1ccc(NC(=O)N(C)C[C@@H]2OCCCC[C@@H](C)Oc3ccc(NC(=O)c4ccncc4)cc3C(=O)N([C@H](C)CO)C[C@@H]2C)cc1,1.085 ± 0.0042
10,COc1ccc(CN2C[C@]3(CN(C3)C(C)=O)c3c([C@H]2CO)n(C)c2cc(OC)ccc32)cc1,1.12 ± 0.071
11,O=C(Nc1cccc(F)c1)N1C[C@H]2[C@@H](c3ccccc31)[C@H](CO)N2C(=O)Cc1ccccn1,0.989 ± 0.046
12,COc1ccccc1CN1C[C@@H](C)[C@H](OC)CN(C)C(=O)c2cc(NC(=O)Nc3ccccc3OC)ccc2OC[C@H]1C,1.02 ± 0.091
13,O=C(c1cnccn1)N1CC(=O)N2[C@H](C1)[C@@H](c1ccc(-c3cccc(F)c3)cc1)[C@@H]2CO,1.02 ± 0.012
14,CO[C@@H]1CN(C)C(=O)c2ccc(NS(C)(=O)=O)cc2OC[C@@H](C)N(CC2CC2)C[C@H]1C,1.14 ± 0.044
15,COc1cccc(CNC(=O)C[C@@H]2CC[C@H]3[C@H](COc4ccc(NS(=O)(=O)c5ccccc5F)cc4C(=O)N3C)O2)c1,0.933 ± 0.042
16,CNC[C@H]1Oc2ccc(NS(=O)(=O)c3ccc(OC)cc3)cc2C(=O)N([C@H](C)CO)C[C@@H]1C,0.998 ± 0.062
17,COc1ccc2c3c([nH]c2c1)[C@@H](CO)N(C[C@]31CN(C1)S(C)(=O)=O)C(=O)C1CCCCC1,1.03 ± 0.032
18,O=C(c1cnccn1)N1CC(=O)N2[C@H](CO)[C@@H](c3ccc(/C=C/c4ccccc4)cc3)[C@H]2C1,1.04 ± 0.07
19,CC(C)NC(=O)NCC[C@@H]1CC[C@H](NS(=O)(=O)c2ccc(Oc3ccccc3)cc2)[C@H](CO)O1,1.13 ± 0.038
20,CN(C)C(=O)c1cccc(-c2cccc(-c3nc(C(=O)N4CCCCC4)cc4c3[C@@H](CCO)N([S@](=O)C(C)(C)C)C4)c2)c1,0.984 ± 0.033
21,O=C(Cc1ccncc1)N1CC(=O)N2[C@@H](CO)[C@H](c3ccc(Br)cc3)[C@@H]2C1,1.03 ± 0.095
22,C[C@@H]1CN([C@H](C)CO)C(=O)c2cc(NC(=O)CCCN(C)C)ccc2O[C@H]1CN(C)Cc1ccc(Cl)c(Cl)c1,1.05 ± 0.023
23,O=C(Nc1cccc(F)c1)N1C[C@@H]2N[C@H](C1)[C@@H]2c1ccc(-c2cncnc2)cc1,1.044 ± 0.0046
24,O=C1CCCCn2nncc2COC[C@H](Cc2ccccc2)N1,1.077 ± 0.002

row,Compound,viability index
1,CNC[C@H]1OCc2ccccc2-c2ccccc2C(=O)N([C@@H](C)CO)C[C@@H]1C,1.02 ± 0.093
2,COc1cccc(C#Cc2ccc3c(c2)[C@H]2[C@H](CCN2C(=O)c2ccccc2F)[C@@H](CO)N3)c1,1.04 ± 0.06
3,O=C(C1CC1)N1C[C@@H]2[C@H](c3ccccc31)[C@H](CO)N2C(=O)c1ccccc1,0.929 ± 0.048
4,CN1c2ccc(-c3cccc(C#N)c3)cc2[C@@H]2[C@@H](CCN2C(=O)CN2CCOCC2)[C@@H]1CO,1.08 ± 0.029
5,C[C@H]1CN([C@@H](C)CO)C(=O)c2cc(C3=CCCC3)cnc2O[C@H]1CN(C)C(=O)Nc1ccc(C(F)(F)F)cc1,0.975 ± 0.063
6,COc1ccc(C#Cc2cnc3c(c2)C(=O)N([C@H](C)CO)C[C@H](C)[C@H](CN(C)Cc2cccc(C)c2)O3)cc1OC,0.945 ± 0.097
7,C[C@H](CO)N1C[C@H](C)[C@@H](CN(C)C(=O)CCCN(C)C)OCCCC[C@H](C)Oc2ccc(NC(=O)Nc3ccc4c(c3)OCO4)cc2C1=O,0.998 ± 0.067
8,C[C@H]1CCCCO[C@H](CN(C)S(=O)(=O)c2ccc(Cl)cc2)[C@@H](C)CN([C@@H](C)CO)C(=O)c2cc(NC(=O)Nc3ccc(C(F)(F)F)cc3)ccc2O1,1.12 ± 0.13
9,Cc1ccc(S(=O)(=O)N(C)C[C@H]2Oc3cc(C#CC4CCCC4)ccc3S(=O)(=O)N([C@@H](C)CO)C[C@H]2C)cc1,0.713 ± 0.03
10,COCCNC(=O)[C@H]1[C@H](CO)[C@H]2Cn3c(cccc3=O)[C@@H]1N2S(=O)(=O)c1ccccc1C,1.01 ± 0.065
11,O=C(O)C[C@@H]1C[C@H]2c3cc(NC(=O)Cc4ccncc4)ccc3O[C@H]2[C@@H](CO)O1,1.02 ± 0.021
12,COCCNC(=O)C[C@H]1CC[C@H]2[C@@H](COC[C@@H](O)CN2C(=O)c2cc(Cl)cc(Cl)c2)O1,1.03 ± 0.091
13,O=C(CC(F)(F)F)N1C[C@@H]2[C@H](c3ccccc31)[C@H](CO)N2C(=O)C1CCCCC1,1.02 ± 0.019
14,COc1ccccc1S(=O)(=O)N1CC[C@@H]2[C@@H](CO)N(C)c3ccc(-c4cccc(C#N)c4)cc3[C@@H]21,0.99 ± 0.043
15,O=C(Cc1cccnc1)N1CC(=O)N2[C@H](CO)[C@@H](c3ccc(C#CC4CCCCC4)cc3)[C@H]2C1,1.04 ± 0.06
16,N#C[C@@H]1N[C@H](CO)[C@H]1c1ccc(-c2cccc(F)c2)cc1,1.18 ± 0.088
17,COCC(=O)Nc1ccc2c(c1)C(=O)N(C)C[C@@H](OC)[C@H](C)CN(CCc1ccccc1)[C@H](C)CO2,1.05 ± 0.042
18,CC(C)NC(=O)N1CC[C@@H]2[C@H]1c1cc(-c3ccc(F)cc3)ccc1N(C)[C@@H]2CO,1.05 ± 0.033
19,CC(C)NC(=O)N1[C@@H](CO)[C@@H](c2ccccc2)C12CN(C(=O)c1ccccn1)C2,1.18 ± 0.038
20,Cc1cccc(S(=O)(=O)N2CC[C@H]3[C@H](CO)Nc4ccc(-c5ccccc5F)cc4[C@H]32)c1,1.08 ± 0.023
21,CC(C)NC(=O)Nc1ccc2c(c1)C(=O)N(C)[C@@H]1CC[C@H](CC(=O)NCc3ccc(F)cc3)O[C@@H]1CO2,1.11 ± 0.047
22,O=C([C@H]1[C@H](CO)[C@H]2Cn3c(cccc3=O)[C@@H]1N2)N1CCc2ccccc2C1,1.11 ± 0.065
23,CCCNC(=O)N1[C@H](C#N)[C@H](c2ccccc2-c2ccc(OC)cc2)[C@@H]1CO,1.03 ± 0.1
24,CO[C@H]1CN(C)C(=O)c2cc(NC(=O)Nc3ccccc3F)ccc2OC[C@H](C)N(CCC(F)(F)F)C[C@@H]1C,1.05 ± 0.014

row,Compound,viability index
1,COCC#Cc1ccc([C@H]2[C@H](CO)N3CCCCN(Cc4cccnc4)C[C@@H]23)cc1,0.966 ± 0.038
2,C[C@H](CO)N1C[C@H](C)[C@@H](CN(C)C(=O)Nc2ccc(F)cc2)Oc2c(cccc2N(C)C)C1=O,1 ± 0.058
3,O=C(C[C@H]1CC[C@H](NC(=O)CN2CCOCC2)[C@H](CO)O1)NC1CCC1,1.13 ± 0.077
4,Cc1noc(C)c1S(=O)(=O)Nc1ccc2c(c1)C(=O)N([C@@H](C)CO)C[C@@H](C)[C@H](CN(C)C(=O)NC1CCCCC1)O2,1.07 ± 0.021
5,CO[C@H]1CN(C)C(=O)c2cc(NC(C)=O)ccc2OC[C@H](C)N(C(=O)Cc2ccccn2)C[C@@H]1C,1.09 ± 0.12
6,CNC[C@@H]1OCc2cn(nn2)CCCC(=O)N([C@@H](C)CO)C[C@@H]1C,0.993 ± 0.035
7,COCC#Cc1ccc([C@@H]2[C@H](CO)N3C(=O)CN(C(=O)C4CCCCC4)C[C@@H]23)cc1,1.087 ± 0.0032
8,CN1C(=O)c2cc(NC(=O)c3cccc(F)c3)ccc2OC[C@H]2O[C@@H](CC(=O)NCC3CCCCC3)CC[C@@H]21,1.08 and 1.14
9,N#C[C@H]1[C@H](c2ccccc2-c2ccccc2)[C@@H](CO)N1C(=O)Cc1ccncc1,1.06 ± 0.066
10,C/C=C/c1ccc([C@H]2[C@H]3CN(S(=O)(=O)c4ccccc4)CC(=O)N3[C@H]2CO)cc1,1.03 ± 0.034
11,C[C@@H]1CN([C@@H](C)CO)S(=O)(=O)c2ccc(C#CC3(O)CCCC3)cc2O[C@H]1CN(C)C(=O)Nc1cccc(F)c1,0.9968 ± 0.0021
12,C[C@@H]1CN([C@@H](C)CO)C(=O)CCCn2cc(nn2)CO[C@@H]1CN(C)C(=O)Nc1ccc2c(c1)OCO2,1.05 ± 0.015
13,CO[C@@H]1CC[C@@H]2CCOc3c(C#N)cccc3C(=O)N(C)C[C@@H](c3ccccc3)CC(=O)N(C)C[C@@H]1O2,0.988 ± 0.12
14,O=C(C[C@@H]1CC[C@@H]2[C@H](COC[C@@H](O)CN2Cc2cc(F)ccc2F)O1)NCc1ccc(Oc2ccccc2)cc1,0.979 ± 0.035
15,O=C(C1CCC1)N1CC(=O)N2[C@H](C1)[C@@H](c1ccc(Br)cc1)[C@@H]2CO,1.064 ± 0.0019
16,CCc1sc(N2[C@H](C#N)[C@H](c3ccccc3-c3cccc(F)c3)[C@H]2CO)nc1C,1.1 ± 0.11
17,CNC[C@@H]1OCc2cnnn2CCCC(=O)N([C@@H](C)CO)C[C@H]1C,1.04 ± 0.019
18,COCC#Cc1ccc([C@@H]2[C@H]3CN(Cc4cccnc4)CCCCN3[C@H]2CO)cc1,1.03 ± 0.069
19,O=C(C[C@@H]1C[C@H]2c3cc(NC(=O)c4ccc5c(c4)OCO5)ccc3O[C@H]2[C@H](CO)O1)NCCN1CCCCC1,1.08 ± 0.064
20,O=C(NCCCN1CCOCC1)[C@@H]1[C@@H](CO)[C@@H]2Cn3c(cccc3=O)[C@H]1N2C(=O)NC1CCCC1,1.01 ± 0.025
21,CCC(=O)N1C[C@@H](C)[C@H](OC)CN(C)C(=O)c2cc(NC(=O)Nc3ccc(Cl)cc3)ccc2OC[C@H]1C,1.06 ± 0.02
22,Cc1noc(C)c1NC(=O)Nc1ccc2c(c1)C(=O)N([C@@H](C)CO)C[C@H](C)[C@@H](CN(C)S(=O)(=O)c1cccs1)OCCCC[C@@H](C)O2,1.07 ± 0.055
